{"source": "the supplement of paper PMC9446081", "note": "Among all 39,000 compounds or so, about 220 (0.56%) showed activity. Some of the results follow.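 Note: static incubation at 37 °C against the wild-type strain, values averaged over two biological replicates.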"}
{"system": "Escherichia coli K-12 BW25113", "experiment": "relative growth (OD600 normalised to plate interquartile mean) (fraction); higher = less growth inhibition, active = 0.2 or less", "settings": "50 µM; LB; incubation time: overnight (16-24 h)"}
{"smiles": "COc1ccc(NC(=O)N(C)C[C@H]2OCCCC[C@H](C)Oc3ccc(NS(=O)(=O)c4ccc(F)cc4)cc3C(=O)N([C@@H](C)CO)C[C@H]2C)cc1", "relative growth": "inactive: 1.01"}
{"smiles": "O=C1O[C@H](c2ccccc2)[C@H](c2ccccc2)N2[C@H]1[C@@H](C(=O)N1CCCCCCC1)[C@]1(C(=O)Nc3ccc(C#CC4=CCCCC4)cc31)[C@H]2c1ccccc1OCCO", "relative growth": "inactive: 1.06"}
{"smiles": "CC(C)NC(=O)N(C)C[C@@H]1Oc2ccc(NC(=O)Cc3ccccc3)cc2C(=O)N([C@H](C)CO)C[C@@H]1C", "relative growth": "inactive: 0.995"}
{"smiles": "C[C@@H]1CN([C@H](C)CO)C(=O)c2cc(NC(=O)Nc3ccc(C(F)(F)F)cc3)ccc2O[C@@H](C)CCCCO[C@H]1CN(C)Cc1ccccc1", "relative growth": "inactive: 0.993"}
{"smiles": "Cc1noc(C)c1S(=O)(=O)Nc1ccc2c(c1)CC(=O)N([C@@H](C)CO)C[C@@H](C)[C@H](CN(C)S(=O)(=O)c1cn(C)cn1)O2", "relative growth": "inactive: 1.04"}
{"smiles": "Cc1noc(C)c1NC(=O)Nc1ccc2c(c1)C(=O)N([C@H](C)CO)C[C@@H](C)[C@H](CN(C)S(=O)(=O)c1ccc(Cl)cc1)OCCCC[C@H](C)O2", "relative growth": "inactive: 0.981"}
{"smiles": "C[C@@H]1CN([C@@H](C)CO)C(=O)c2cc(NC(=O)Nc3ccc4c(c3)OCO4)ccc2O[C@@H](C)CCCCO[C@@H]1CN(C)S(=O)(=O)c1cccs1", "relative growth": "inactive: 1.02"}
{"smiles": "C[C@H](CO)N1C[C@H](C)[C@H](CN(C)C(=O)Nc2ccc(F)cc2)OCCCC[C@H](C)Oc2ccc(NC(=O)Nc3cccc4ccccc34)cc2C1=O", "relative growth": "inactive: 1.05"}
{"smiles": "CC(=O)OC/C=C(\\C)CCC=C(C)C", "relative growth": "inactive: 0.989"}
{"smiles": "COc1ccc(S(=O)(=O)N(C)C[C@H]2Oc3ccc(NC(=O)C4CC4)cc3CC(=O)N([C@@H](C)CO)C[C@@H]2C)cc1", "relative growth": "inactive: 0.868"}
{"smiles": "C[C@H](CO)N1C[C@H](C)[C@H](CN(C)Cc2ccc(-c3ccccc3)cc2)Oc2c(NC(=O)C3CCCCC3)cccc2C1=O", "relative growth": "inactive: 1.02"}
{"smiles": "COCCCNC(=O)[C@@]1(Sc2ccc(C)cc2)CC(=O)N(Cc2ccccc2C(F)(F)F)[C@@H]1c1ccc(CO)cc1I", "relative growth": "inactive: 1.01"}
{"smiles": "COc1ccc(S(=O)(=O)N(C)C[C@@H]2OCc3cnnn3CCCC(=O)N([C@@H](C)CO)C[C@@H]2C)cc1", "relative growth": "inactive: 0.986"}
{"smiles": "N#Cc1ncccn1", "relative growth": "inactive: 1.02"}
{"smiles": "CN1C(C(=O)Nc2ccccn2)=C(O)c2sc(Cl)cc2S1(=O)=O", "relative growth": "inactive: 0.982"}
{"smiles": "COc1cccc(C#Cc2ccc3c(c2)O[C@H](CN(C)S(=O)(=O)c2ccccc2F)[C@H](C)CN([C@H](C)CO)S3(=O)=O)c1", "relative growth": "inactive: 1.03"}
{"smiles": "C[C@H]1CN([C@@H](C)CO)C(=O)Cc2cc(NC(=O)Cn3cnnn3)ccc2O[C@@H]1CN(C)S(=O)(=O)c1ccc(F)cc1", "relative growth": "inactive: 0.986"}
{"smiles": "CC(=O)O[C@H](C[C@H](O)[C@@](C)(CCC=C(C)C)O[C@H]1O[C@@H](CO)[C@@H](O)[C@@H](O)[C@@H]1O)/C(C)=C/COC[C@@H](O)[C@@H](O)[C@@H](O)[C@@H](O)CO", "relative growth": "inactive: 1.01"}
{"smiles": "COc1ccc([C@@H]2CC(=O)c3c(O)cc(O[C@@H]4O[C@H](CO[C@@H]5O[C@@H](C)[C@H](O)[C@@H](O)[C@H]5O)[C@@H](O)[C@H](O)[C@H]4O)cc3O2)cc1O", "relative growth": "inactive: 1.02"}
{"smiles": "CCCNC(=O)N1CC[C@]2(CC1)CN([C@@H](CO)c1[nH]c3cc(ccc3c12)OC)C(=O)CN1CCOCC1", "relative growth": "inactive: 0.998"}
{"smiles": "CCS(=O)(=O)N1CCO[C@]2(COCCN(c3cncnc3)C2)C1", "relative growth": "inactive: 0.997"}
{"smiles": "CC(C)NC(=O)Nc1cccc2c1O[C@@H](CN(C)S(=O)(=O)c1cn(C)cn1)[C@@H](C)CN([C@@H](C)CO)C2=O", "relative growth": "inactive: 0.991"}
{"smiles": "CN(C)C(=O)C[C@@H]1CC[C@@H]2[C@H](COC[C@H](O)CN2S(=O)(=O)c2ccc(Oc3ccccc3)cc2)O1", "relative growth": "inactive: 0.997"}
{"smiles": "C[C@H](CO)N1C[C@H](C)[C@H](CN(C)Cc2ccccc2)Oc2ccc(NC(=O)CCN3CCOCC3)cc2CC1=O", "relative growth": "inactive: 0.988"}
{"smiles": "C[C@H](CO)N1C[C@H](C)[C@@H](CN(C)C(=O)Nc2cccc3ccccc23)Oc2ccc(NC(=O)Cc3cn(C)c4ccccc34)cc2CC1=O", "relative growth": "inactive: 1.03"}
{"smiles": "Cc1ccc(S(=O)(=O)N(C)C[C@@H]2Oc3c(NC(=O)C4CCOCC4)cccc3C(=O)N([C@@H](C)CO)C[C@@H]2C)cc1", "relative growth": "inactive: 0.987"}
{"smiles": "CO[C@H]1CN(C)C(=O)c2ccc(NC(=O)Nc3ccccc3)cc2OC[C@@H](C)N(C(=O)CN(C)C)C[C@@H]1C", "relative growth": "inactive: 0.986"}
{"smiles": "CC(C)C[C@@H](NS(=O)(=O)c1ccc2[nH]c(=O)c(=O)[nH]c2c1)C(=O)O", "relative growth": "inactive: 1.02"}
{"smiles": "C[C@H](CO)N1C[C@H](C)[C@H](CN(C)Cc2ccc(Cl)c(Cl)c2)Oc2ccc(NC(=O)Nc3ccc(C(F)(F)F)cc3)cc2C1=O", "relative growth": "inactive: 1.02"}
{"smiles": "C[C@@H]1CN([C@@H](C)CO)C(=O)CCCn2nncc2CO[C@@H]1CN(C)S(=O)(=O)c1ccc(Cl)cc1", "relative growth": "inactive: 0.995"}
{"smiles": "CN[C@@H]1[C@@H](O)[C@@H](O[C@@H]2[C@@H](O)[C@H](O[C@H]3OC(CN)=CC[C@H]3N)[C@@H](N)C[C@H]2N)OC[C@]1(C)O", "relative growth": "inactive: 1.01"}
{"smiles": "C[C@@H]1CN([C@@H](C)CO)S(=O)(=O)c2ccc(C#CC(C)(C)O)cc2O[C@@H]1CN(C)Cc1ccc(F)cc1", "relative growth": "inactive: 1.02"}
{"smiles": "C[C@@H]1CN([C@@H](C)CO)C(=O)Cc2cc(NC(=O)C3CC3)ccc2O[C@@H]1CN(C)C(=O)Nc1ccccc1", "relative growth": "inactive: 1.01"}
{"smiles": "C[C@H]1CCCCO[C@@H](CN(C)S(=O)(=O)c2ccc(Cl)cc2)[C@@H](C)CN([C@@H](C)CO)C(=O)c2cc(NS(=O)(=O)c3ccccc3)ccc2O1", "relative growth": "inactive: 1.05"}
{"smiles": "C[C@@H]1CN([C@@H](C)CO)C(=O)c2cccc(NC(=O)Nc3cccc4ccccc34)c2O[C@H]1CN(C)C(=O)NC1CCCCC1", "relative growth": "inactive: 1.01"}
{"smiles": "O=C(C[C@H]1C=C[C@@H](NC(=O)c2ccncc2)[C@@H](CO)O1)NCc1ccncn1", "relative growth": "inactive: 0.996"}
{"smiles": "Cc1noc(C)c1NC(=O)Nc1ccc2c(c1)C(=O)N([C@H](C)CO)C[C@@H](C)[C@H](CN(C)C(=O)Nc1ccc(F)cc1)OCCCC[C@H](C)O2", "relative growth": "inactive: 1.01"}
